These results are taken from the RNAGym collection of RNA variant scans (doi:10.7554/elife.90254).

Read counts are not given, so values of variants with three or more changes are uncertain.

B1: LINE1-full (parent)
chain: UACGUAGGUGGUUUUCCCCUGAUAGUGCUAAGGGGGCCUGGAAGUUUGGACUGGGCAGAGCUCAACACAGCGUGGCAAAGUGGCUGUGGCUAGACUGCCUCUCUGGAUUCCUCGUCACUCAGCAGGGCAUCUCUGAGAGAAAUGCC

This series covers variants of B1. The series is described as follows: self-cleavage, relative activity (ratio to wild type); higher = more cleavage; in vitro, sequencing; the parent is a self-cleaving ribozyme.
As to U39A U45A A141G, the self-cleavage worked out at 1.77.
As to U39A A42U G44A U46C U87C A129G, the self-cleavage was determined as 0.2.
Turning to U39A A77U U81C, the self-cleavage was 1.35.
For the variant U39C A92G A140G, the self-cleavage was 0.12.
As to U39A A59G U108C U132C, the self-cleavage stood at 0.12.
The value for U39C U91A A107G A129G U143C was 0; that for U39A U112C C113U G114A C116A was 1.72.
Take U39A A78G U81C A138G: the self-cleavage was determined as 1.35.
For the variant U39A A43G U45A A78G, the self-cleavage turned out to be 1.02.
For U39A A67G U143C, the self-cleavage was determined as 0.58.
Turning to C38U U39G U62C A124G, the self-cleavage worked out at 0.11.
For the variant U39C C113U U143C, the self-cleavage amounted to 0.78.
U39A A67U A140G: the self-cleavage worked out at 0.04.
U39A U100C A117G: the self-cleavage worked out at 2.42.
Turning to U39A U109C C118U, the self-cleavage is 0.85.
Take U39A A79U A121U: the self-cleavage came out at 1.51.
To U39C A43G U109C belongs 0; to U39A U108C A140G, 0.37.
Regarding U39A U62C U73A A138G, the self-cleavage is 0.05.
For the variant U39C A65U U115C A138G, the self-cleavage stood at 0.25.
The value for U39A A59G U62C A77G U87A was 0.23; that for U39A A42G U96C was 0.35.
The value for U39C A59G U91A was 0.13; that for U39C A124U U130C was 1.23.
Consider C38U G114A G135A, for which the self-cleavage amounted to 0.16.
The value for U39A G88U U104C A140U was 0.04; that for U39C A69U A77G was 0.
As to U39A A64G A65G, the self-cleavage was 0.
As to C38U A79C U130A, the self-cleavage stood at 0.93.
In the case of U39A U108C A136U A138G, the self-cleavage amounted to 2.02.
Turning to U39C U45C C56U A94U U109A A142G, the self-cleavage came out at 0.01.
Regarding U39C G54A A77G U102C U112C, the self-cleavage was found to be 0.69.
U39A A67G A136G: the self-cleavage was 0.28.
Take U39C A77G C123U: the self-cleavage was 1.16.
For the variant U39A U45C C84U, the self-cleavage came out at 0.08.
As for U39C U46C G55A A59G, the self-cleavage was 0.08.
Turning to U39A U108C A117G, the self-cleavage was determined as 1.7.
For the variant U39A A69G U100C A138G A141G, the self-cleavage is 1.15.
The value for U39A A94U A117U was 0.1; that for U39C A64U G105U was 0.25.
Turning to U39C U52C A64U G75A, the self-cleavage was 0.08.
The value for U39A A59G U73C A121G A142G was 0; that for U39C U46C U134A was 0.82.
With U39A A50G U73C A77U U104A A140G, the self-cleavage was determined as 0.58.
For U39C G44U U62A A141G, the self-cleavage amounted to 0.06.
To U39C C68A U85C A129G A140G belongs 0.05; to U39C U52A C84U A140G, 0.1; to U39A U87A U132C A142G, 0.02.
For U39A G48A U132C, the self-cleavage was determined as 1.58.
Regarding U39C C71U U100C, the self-cleavage turned out to be 1.1.
As for C38U C99A G114A U132C, the self-cleavage turned out to be 0.82.
Regarding U39C A64G U115C, the self-cleavage worked out at 1.06.
The value for U39C U46A A67G U132C was 0.64; that for U39C A59G U96A was 0.07.
Turning to U39C U81A A94G U96A, the self-cleavage is 0.13.
As to U39C U45A U62C U73C G74A U100C A138G, the self-cleavage turned out to be 0.
Turning to U39C U102A G106A, the self-cleavage worked out at 1.42.
On to U39C A94U A129U A141G, for which the self-cleavage worked out at 0.26.
Consider U39C A42G A65G, for which the self-cleavage came to 0.
For U39C A121U A141G, the self-cleavage came to 1.14.
Take U39C U73A C123U: the self-cleavage is 0.47.
With U39A G58U A78G A121U U143A, the self-cleavage turned out to be 0.01.
With U39A A79G U102A, the self-cleavage was 1.68.
Regarding U39A A57G A94G, the self-cleavage turned out to be 0.
The value for U39A G75A U87A U109A was 0.17.
The value for U39A A79U A142G was 1.76; that for U39C U46C U52A U115C A141G was 1.2.
The value for U39C C71U U134C A140G was 0.
Consider U39C A43G U102C, for which the self-cleavage came out at 1.62.
With U39A U46C A136U, the self-cleavage was 1.45.
Turning to U39C U87C C120U, the self-cleavage is 0.12.
For the variant U39A U102C U130C U132C, the self-cleavage was determined as 0.71.
To U39C A42G U85C G97A belongs 0.07; to U39C G54A U100A U134A, 0.06; to U39A C71U C145U, 0.96.
Turning to U39C G70A A136G, the self-cleavage is 0.05.
Take U39C A92U G93A: the self-cleavage came to 0.04.
On to U39A U62C G74A A121C, for which the self-cleavage amounted to 0.02.
As to U39A U45C U132C, the self-cleavage was found to be 1.24.
The value for U39C A43G U52A A57C U108C A142G was 0.
With U39C A136G A142G, the self-cleavage amounted to 1.55.
Consider U39C A77G G114A, for which the self-cleavage was 2.32.
On to C38U U46G A65G, for which the self-cleavage amounted to 0.2.
To U39A A59G A69G U96A U104C A129U belongs 0.
For the variant U39A U100A G122U A141G U143C, the self-cleavage turned out to be 0.
As for U39A U52G C95U, the self-cleavage amounted to 0.39.
The value for U39A A50U A136G was 1.11; that for U39C U81C U108C C113A A142C was 1.89; that for U39A U96A A107G A138G was 0.
U39A U47C A65G U130C: the self-cleavage worked out at 0.6.
The value for U39C A78G A107G was 2.59; that for U39A A43G A69G U132C G144A was 0.07; that for C38U G72A G114A was 1.5.
The value for U39C A43U A136U was 1.02.
Take C38U G48A C66U: the self-cleavage amounted to 0.04.
With U39A A79G A121U A140G, the self-cleavage was 1.05.
U39C U73C A124G: the self-cleavage was 0.86.
For U39C U100C G127U A142G, the self-cleavage stood at 2.71.
With U39C A78G A117U, the self-cleavage came to 1.19.
Regarding U39A G55A G88A A136U, the self-cleavage stood at 0.01.
With U39A A57U U96A A140G, the self-cleavage is 0.51.
The value for U39A A67G G139A was 0.56.
As to U39C A59G A64G, the self-cleavage was determined as 0.29.
For the variant U39C U52C U112G C113U A142G U143C C145U, the self-cleavage was 0.76.
On to U39C G44A A69U C99U A107G, for which the self-cleavage amounted to 0.02.
As to U39C A59G U62C U102C, the self-cleavage was found to be 0.
Turning to U39C A59G U85A U100C, the self-cleavage came to 0.
In the case of C38U U45C C103A, the self-cleavage is 1.41.
For U39C U46C A64G, the self-cleavage stood at 0.
As to U39A A77G A141G, the self-cleavage amounted to 2.54.
U39A A57U U134C: the self-cleavage was 0.11.
As for U39A A42G G75A, the self-cleavage was determined as 0.94.
As for U39C G41A C111U A117G G122A, the self-cleavage is 1.62.
As to U39C C84U U115A, the self-cleavage was 0.12.
Turning to U39A A78G A79C U132C A141C, the self-cleavage came to 1.53.
With U39A A64G U73A, the self-cleavage was 0.26.
For the variant U39A G55C A67G, the self-cleavage was found to be 0.06.
As to U39C U45C U81A, the self-cleavage turned out to be 0.06.
For the variant U39C U100A A129G, the self-cleavage was found to be 0.48.
Regarding U39C A64U A77U, the self-cleavage amounted to 0.28.
With U39C A79U G86A A92U U96A U143A, the self-cleavage was found to be 0.03.
On to U39C U87C C111U, for which the self-cleavage is 0.1.
Turning to U39A A65G A138G, the self-cleavage came out at 0.
To U39A A43G A107U belongs 1.23.
The value for U39C C56A U115C was 0.06; that for U39C A78U U132A was 1.99.
Consider U39C G53A G54A A65G A141G, for which the self-cleavage worked out at 0.06.
Turning to U39A U73C G137A, the self-cleavage turned out to be 2.
Regarding U39C U85C U108A U109C, the self-cleavage came out at 0.
For the variant U39A U46C A107G A140G A141G A142G, the self-cleavage stood at 1.53.
Take C38U U81C C90G: the self-cleavage was found to be 0.03.
Take U39A A140G A142G: the self-cleavage is 0.33.
The value for C38U G54A U73C U132C was 0.61; that for U39A U45C U47A A94U U119C was 0.38; that for U39A C116U A117G was 1.58.
To U39C A77G A142G belongs 1.84; to U39C U62A A64U A78G U100C, 0.
U39A A92U A138U A141G: the self-cleavage was 0.66.
To U39C A77G A124U U143A belongs 2.85; to U39C U87A U115C, 0.47.
Consider U39C U52C A57G G72A U81A U102C C123U A140G A142G, for which the self-cleavage is 0.03.
Take U39A A136U A138G: the self-cleavage turned out to be 1.02.
With U39C U46C U52C A77U U91C A141G, the self-cleavage is 0.
The value for U39A U62C A78G was 0.1; that for U39A A43G U73C U130C was 0; that for U39C A79G A121U was 1.37.
Take U39C G54A U85C C98U U102A U115C: the self-cleavage is 0.09.
To U39C U87A A121G C133A belongs 0.15.
As to U39A A94G U100C, the self-cleavage is 0.32.
For the variant U39A C76U U143C, the self-cleavage came to 1.86.
Regarding U39A G44C U52A G106A A136C, the self-cleavage turned out to be 1.43.
Regarding U39C U87C U102A A140G, the self-cleavage is 0.
For U39C G49A G74A U119C, the self-cleavage came out at 0.98.
To U39A U46A U100C A138U belongs 2.05; to U39C A43U G137A, 1.6; to U39C A59U G97A U119C, 0.21.
The value for U39A A94G A140C was 0.29; that for U39A A42G A43G G72A was 1.64; that for U39C A136G U143A was 0.43.
Consider U39C A94U G97A A117G, for which the self-cleavage stood at 0.04.
With U39A U45C G97A, the self-cleavage stood at 0.06.
As for U39A G54U U112C, the self-cleavage stood at 0.94.
Regarding U39C U73C G97A U119C, the self-cleavage was 0.09.
Turning to U39C A77G U109C A124U, the self-cleavage stood at 2.8.
As to U39A A43G G55A U130C, the self-cleavage turned out to be 0.04.
The value for U39A A65G A79G A141G was 0.13; that for U39A A42G U62C U102C A136G A142U U143A was 0.
